# Results from paper PMC7230264.
# Substitutions are numbered along the chain they refer to. These are yes or no findings as the source states them, for the method shown. Binding seen in cells or lysates may run through a third protein. Some results given as binding are weak or reduced against the parent protein; the word gives no strength. Sequences can lack the tags named with a protein.
# B1: GM130 (protein, UniProt Q08379 1-1002)
# chain: MWPQPRLPPRPAMSEETRQSKLAAAKKKLREYQQRNSPGVPTGAKKKKKIKNGSNPETTTSGGCHSPEDTPKDNAATLQPSDDTVLPGGVPSPGASLTSMAASQNHDADNVPNLMDETKTFSSTESLRQLSQQLNGLVCESATCVNGEGPASSANLKDLESRYQQLAVALDSSYVTNKQLNITIEKLKQQNQEITDQLEEEKKECHQKQGALREQLQVHIQTIGILVSEKAELQTALAHTQHAARQKEGESEDLASRLQYSRRRVGELERALSAVSTQQKKADRYNKELTKERDALRLELYKNTQSNEDLKQEKSELEEKLRVLVTEKAGMQLNLEELQKKLEMTELLLQQFSSRCEAPDANQQLQQAMEERAQLEAHLGQVMESVRQLQMERDKYAENLKGESAMWRQRMQQMSEQVHTLREEKECSMSRVQELETSLAELRNQMAEPPPPEPPAGPSEVEQQLQAEAEHLRKELEGLAGQLQAQVQDNEGLSRLNREQEERLLELERAAELWGEQAEARRQILETMQNDRTTISRALSQNRELKEQLAELQSGFVKLTNENMEITSALQSEQHVKRELGKKLGELQEKLSELKETVELKSQEAQSLQQQRDQYLGHLQQYVAAYQQLTSEKEVLHNQLLLQTQLVDQLQQQEAQGKAVAEMARQELQETQERLEAATQQNQQLRAQLSLMAHPGEGDGLDREEEEDEEEEEEEAVAVPQPMPSIPEDLESREAMVAFFNSAVASAEEEQARLRGQLKEQRVRCRRLAHLLASAQKEPEAAAPAPGTGGDSVCGETHRALQGAMEKLQSRFMELMQEKADLKERVEELEHRCIQLSGETDTIGEYIALYQSQRAVLKERHREKEEYISRLAQDKEEMKVKLLELQELVLRLVGDRNEWHGRFLAAAQNPADEPTSGAPAPQELGAANQQGDLCEVSLAGSVEPAQGEAREGSPRDNPTAQQIMQLLREMQNPRERPGLGSNPCIPFFYRADENDEVKITVI
# B2: calnexin (protein, UniProt P27824 21-592)
# chain: HDGHDDDVIDIEDDLDDVIEEVEDSKPDTTAPPSSPKVTYKAPVPTGEVYFADSFDRGTLSGWILSKAKKDDTDDEIAKYDGKWEVEEMKESKLPGDKGLVLMSRAKHHAISAKLNKPFLFDTKPLIVQYEVNFQNGIECGGAYVKLLSKTPELNLDQFHDKTPYTIMFGPDKCGEDYKLHFIFRHKNPKTGIYEEKHAKRPDADLKTYFTDKKTHLYTLILNPDNSFEILVDQSVVNSGNLLNDMTPPVNPSREIEDPEDRKPEDWDERPKIPDPEAVKPDDWDEDAPAKIPDEEATKPEGWLDDEPEYVPDPDAEKPEDWDEDMDGEWEAPQIANPRCESAPGCGVWQRPVIDNPNYKGKWKPPMIDNPSYQGIWKPRKIPNPDFFEDLEPFRMTPFSAIGLELWSMTSDIFFDNFIICADRRIVDDWANDGWGLKKAADGAAEPGVVGQMIEAAEERPWLWVVYILTVALPVFLVILFCCSGKKQTSGMEYKKTDAPQPDVKEEEEEKEEEKDKGDEEEEGEEKLEEKQKSDAEEDGGTVSQEEEDRKPKAEEDEILNRSPRNRKPRRE
# Key:
# Test in all cases: co-IP; lysates of HEK293T cells transfected 48 h with EGFP-tagged MAG clones (50 mM Tris-HCl pH 8.0, 120 mM NaCl, 0.5% Triton X-100, sonicated); anti-GFP antibody on Dynabeads, overnight at 4 °C; immunoblots for endogenous GM130 and calnexin
# [1] = target: T1, MAG carrying the p.Cys42Arg variant in fusion with a C-terminal EGFP-tag (human) (UniProt P20916)
# T1 sequence: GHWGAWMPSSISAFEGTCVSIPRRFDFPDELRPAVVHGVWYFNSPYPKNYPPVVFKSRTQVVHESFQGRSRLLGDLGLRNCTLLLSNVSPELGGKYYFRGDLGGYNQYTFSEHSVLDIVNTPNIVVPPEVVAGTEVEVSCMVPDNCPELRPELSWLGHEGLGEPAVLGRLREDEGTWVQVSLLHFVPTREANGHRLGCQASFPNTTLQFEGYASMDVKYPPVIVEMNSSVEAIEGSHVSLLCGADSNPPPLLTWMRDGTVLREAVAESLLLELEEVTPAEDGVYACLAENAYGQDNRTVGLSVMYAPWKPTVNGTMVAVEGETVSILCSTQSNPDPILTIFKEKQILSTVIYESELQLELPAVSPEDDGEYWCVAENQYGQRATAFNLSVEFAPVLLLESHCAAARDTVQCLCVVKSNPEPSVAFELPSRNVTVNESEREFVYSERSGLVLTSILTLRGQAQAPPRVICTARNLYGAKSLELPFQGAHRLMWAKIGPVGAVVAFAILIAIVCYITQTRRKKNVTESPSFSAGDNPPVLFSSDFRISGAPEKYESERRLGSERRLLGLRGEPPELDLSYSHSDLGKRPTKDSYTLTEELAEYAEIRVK
# [2] = target: T2, MAG carrying the p.Ser133Arg variant in fusion with a C-terminal EGFP-tag (human) (UniProt P20916)
# T2 sequence: T1 sequence with R23C, S114R
# [3] = target: T3, wild-type myelin-associated glycoprotein (MAG) in fusion with a C-terminal EGFP-tag (human) (UniProt P20916)
# T3 sequence: T1 sequence with R23C
Binder,binding [1],binding [2],binding [3]
B1,no binding,no binding,binds
B2,binds,binds,binds
